# According to paper PMC4336329 (PLoS ONE, 2015):
# About 2,200 (0.71%) of roughly 310,000 compounds showed an effect of 50% or more. Effects have a minus sign here. The list shows a part of the results.
# Target: human ether-à-go-go-related gene (hERG) potassium channel (human, UniProt Q12809)
# Test: primary screen, population patch clamp on CHO cells stably expressing hERG
# Chain of human ether-à-go-go-related gene (hERG) potassium channel (Q12809 whole entry, looked up): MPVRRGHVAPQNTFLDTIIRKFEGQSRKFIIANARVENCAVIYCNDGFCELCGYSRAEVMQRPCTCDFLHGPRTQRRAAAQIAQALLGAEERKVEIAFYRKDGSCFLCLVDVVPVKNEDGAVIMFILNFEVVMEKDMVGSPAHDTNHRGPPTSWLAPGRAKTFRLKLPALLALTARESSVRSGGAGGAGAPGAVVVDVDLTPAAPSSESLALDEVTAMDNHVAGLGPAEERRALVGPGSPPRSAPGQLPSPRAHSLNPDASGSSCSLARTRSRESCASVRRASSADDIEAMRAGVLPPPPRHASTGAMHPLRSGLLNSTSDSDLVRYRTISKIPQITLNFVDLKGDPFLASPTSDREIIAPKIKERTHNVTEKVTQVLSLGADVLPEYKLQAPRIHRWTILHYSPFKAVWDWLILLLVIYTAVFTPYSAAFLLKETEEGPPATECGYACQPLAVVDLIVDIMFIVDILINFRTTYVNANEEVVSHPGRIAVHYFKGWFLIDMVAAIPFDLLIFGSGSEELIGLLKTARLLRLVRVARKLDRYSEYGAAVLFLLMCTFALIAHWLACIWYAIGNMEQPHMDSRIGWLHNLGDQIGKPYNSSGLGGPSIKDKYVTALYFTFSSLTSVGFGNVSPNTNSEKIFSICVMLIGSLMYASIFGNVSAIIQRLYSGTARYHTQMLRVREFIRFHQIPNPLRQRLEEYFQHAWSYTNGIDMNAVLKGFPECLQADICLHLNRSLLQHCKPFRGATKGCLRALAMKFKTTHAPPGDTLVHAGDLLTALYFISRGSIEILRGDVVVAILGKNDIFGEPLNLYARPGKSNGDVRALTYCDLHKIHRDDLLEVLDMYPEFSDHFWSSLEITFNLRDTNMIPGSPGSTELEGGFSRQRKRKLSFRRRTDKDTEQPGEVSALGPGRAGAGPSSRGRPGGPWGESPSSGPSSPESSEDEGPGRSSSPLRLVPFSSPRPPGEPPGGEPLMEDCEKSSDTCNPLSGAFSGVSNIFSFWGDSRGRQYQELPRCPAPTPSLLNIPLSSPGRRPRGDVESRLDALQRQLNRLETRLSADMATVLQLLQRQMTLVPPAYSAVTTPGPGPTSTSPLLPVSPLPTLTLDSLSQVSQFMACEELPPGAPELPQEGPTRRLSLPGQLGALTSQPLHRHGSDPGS
row,SMILES,"hERG current change (%, negative = inhibition) at 1uM [%]"
1,Cc1ccccc1NC(=O)NC(C)(C)CC(C)(C)C,14.1
2,COc1cc(CN2CCC(CO)(CCOc3ccccc3)CC2)cc(OC)c1,-8.26
3,NC(=O)c1ccc(N=Nc2c(O)[nH]c(=O)[nH]c2=O)cc1,2.48
4,CCC(C)NC(=O)CSc1nnc(-c2c[nH]c3ccccc23)o1 (centres unmarked),6.83
5,Cc1ccc2[nH]c(C)c(/C=C/c3cc[n+](C)cc3)c2c1.[I-],15.8
6,Nc1nnc(SCC(=O)OCC(=O)Nc2ccccc2F)s1,3.47
7,COC(=O)c1ccc2c(=O)n(CCN3CCOCC3)c(SCC(=O)NCc3ccccc3)nc2c1,-0.617
8,Cc1cc(NCCN2CCOCC2)n2ncc(-c3ccccc3)c2n1,4.56
9,COc1ccc(Cn2nnnc2C(c2ccccc2Cl)N2CCC(C(N)=O)CC2)cc1 (centres unmarked),8.14
10,Cc1cc(=O)[nH]c2c1c(C)nn2C(C)(C)C,10.5
11,C#CC(CC)(CC)NC(=O)Nc1ccccc1C(=O)OC,9.34
12,CC(=O)N1c2ccc(S(=O)(=O)NCC3CCC(C(=O)N(C)Cc4ccccc4)CC3)cc2CC1C (centres unmarked),10.8
13,COc1ccc(-c2nc(SCC(=O)Nc3c(F)cccc3F)n[nH]2)cc1,-1.88
14,O=C(Nc1ccccc1N1CCCCC1)c1cccs1,-14.7
15,COc1ccc(C2=NN(C(=O)CCCC(=O)O)C(c3cccs3)C2)cc1OC (centres unmarked),16.5
16,COc1c2ccoc2nc2c(OC)c(OCC(O)C(C)(C)O)ccc12 (centres unmarked),20.9
17,Cc1cccc(CCNC(=O)CCS(=O)(=O)c2ccc3nc(C)sc3c2)c1,6.03
18,Cc1nn(CCC(=O)NNC(=S)Nc2ccc(Cl)cc2)c(C)c1[N+](=O)[O-],14.9
19,CC1CCCN(CCCNC(=O)C2CCN(S(=O)(=O)N3CCC4(CC3)OCCO4)CC2)C1 (centres unmarked),13.2
20,Cc1ccc(C(=O)Cc2nnc(C)s2)cc1,1.24
21,CCOC(=O)C1=C(CS(=O)(=O)c2ccc(Cl)cc2)NC(=O)NC1c1ccc(O)c(OC)c1 (centres unmarked),9.27
22,CC(C)c1c(C(=O)N/N=C/c2ccc(C(F)(F)F)cc2)nnn1-c1nonc1N,-0.403

row,SMILES,"hERG current change (%, negative = inhibition) at 1uM [%]"
1,CCn1c(=N)n(CC(O)c2ccco2)c2ccccc21.Cl (centres unmarked),-7.63
2,Cc1ccc(NC(=O)CCC(=O)NNC(=O)COc2ccc([N+](=O)[O-])cc2)cc1C,2.42
3,CCN1C(=O)C2(C(C#N)=C(N)Oc3n[nH]c(-c4ccc(Cl)cc4)c32)c2ccccc21 (centres unmarked),12
4,CCOC(=O)c1nc(N)c(C(=O)OCC)[nH]1,13.9
5,O=C(Nc1cccc(-c2ccc3nncn3n2)c1)C(F)(F)F,7.84
6,COC(=O)CN1C(=O)COc2ccc(S(=O)(=O)NCc3ccc(F)cc3)cc21,-0.703
7,COc1ccc(CNC(=O)CSc2nnc(C)n2-c2ccc(F)cc2)cc1,-2.52
8,COc1cccc(CNS(=O)(=O)c2cn(C)cn2)c1,10.1
9,COC(=O)C(Cc1c[nH]c2ccccc12)NC(=O)c1cc(-c2ccc(OC)c(OC)c2)oc1C (centres unmarked),7.15
10,COc1cc(C(=O)NNC(=O)COc2cccc(F)c2)ccc1OCC(=O)N1CCOCC1,5.92
11,CCC(=O)Nc1ccc2nn(-c3ccc(F)cc3)nc2c1,12
12,COc1ccc(-c2nnc(SCC(=O)Nc3ccccc3)n2C)cc1,5.24
13,O=C(NC(Cc1ccccc1)C(=O)O)/C(=C/c1ccccc1)NC(=O)c1ccc(Br)o1 (centres unmarked),15.2
14,CCn1cc(C(=O)NN)c(=O)c2cc(F)c(N3CCN(C)CC3)cc21,16.1
15,O=C(CN1C(=O)C2CC=CCC2C1=O)OCc1cc(=O)n2cc(Br)ccc2n1 (centres unmarked),-6.54
16,CCOC(=O)c1c(C)c(C(=O)Nc2ccc3c(c2)OCCO3)c(C)n1CC,15.6
17,Cc1ccc(S(=O)(=O)N2CCC(C(=O)OCC(=O)N(Cc3ccccc3)C(C)(C)C)CC2)cc1C,2.42
18,CCCCN=C1CC(C)(C)CC(=O)/C1=C(/O)CCC,8.96
19,O=C1CCc2ccccc2N1,16.3
20,COCCn1c(SCC(=O)NC(=O)NC2CCCC2)nc2ccccc2c1=O,1.9
21,O=C1CCN(CCc2ccccc2)CCN1[C@H](COc1ccccc1)c1ccccc1,-82.8
22,CCOc1ccc(CC(=O)Nc2nccs2)cc1OCC,-0.677
